In patent US20250147039A1, “Compounds for complexation of rare earth elements and/or s-, p-, d- block metals, their coordination compounds, peptide conjugates, method of their preparation and use thereof” (USTAV ORGANICKE CHEMIE A BIOCHEMIE AV CR V.V.I., priority 2021, published 2025):
For at least one compound, name, drawing or mass did not settle the structure.

Legend:
Type in all cases: physicochemical
[1] = Dissociation of chelates in aq. 1.0M HCl at 80° C. (acid decomplexation kinetic inertness) (Chart 18); settings: exponential decay fit
[2] = Dissociation of chelates in aq. 6.0M HCl at 80° C. (acid decomplexation kinetic inertness) (Chart 17)
[3] = Dissociation of chelates in aq. 0.1M HCl at RT (acid decomplexation kinetic inertness) (Chart 20); settings: exponential decay fit
[4] = Dissociation of chelates in aq. 0.1M HCl at 80° C. (acid decomplexation kinetic inertness) (Chart 19); settings: exponential decay fit

Compound | t1/2 (half-life of chelate dissociation) [1] | t1/2 (half-life of chelate dissociation, exponential decay fit) [2] | t1/2 (half-life of chelate dissociation) [3] | t1/2 (half-life of chelate dissociation) [4]
O=C1C[N@@]2CC[N@]3CC[N@@](CC[N@](CC2)Cc2cccc(n2)-c2cnnn2Cc2cc(-c4ccccc4)cc(n2)C3)CC(=O)[O][Lu][O]1 [TD522] | too stable | 3.3E^4 ± 1.4E^3 hours | too stable | too stable
O=C1C[N@@]2CC[N@]3CC[N@@](CC[N@](CC2)Cc2cccc(n2)-c2cnnn2Cc2cc(-c4ccccc4)cc(n2)C3)CC(=O)[O][Gd][O]1 [TD527] | 3.0E^1 ± 4.9E^−1 hours | 1.7E^−1 hours | too stable | 2.5E^3 ± 3.7E^1 hours
O=C1C[N@@]2CC[N@]3CC[N@@](CC[N@](CC2)Cc2cccc(n2)-c2cnnn2Cc2cc(-c4ccccc4)cc(n2)C3)CC(=O)[O][Eu][O]1 [TD599] | 7.3E^0 ± 2.6E^−1 hours | too unstable | too stable | 3.8E^2 ± 5.8E^1 hours
O=C1C[N@@]2CC[N@]3CC[N@@](CC[N@](CC2)Cc2cccc(n2)-c2cnnn2Cc2cc(-c4ccccc4)cc(n2)C3)CC(=O)[O][Tb][O]1 [TD600] | 3.7E^2 ± 3.2E^1 hours | 2.7E^0 hours | too stable | 3.2E^4 ± 3.3E^3 hours
O=C1C[N@@]2CC[N@]3CC[N@@](CC[N@](CC2)Cc2cccc(n2)-c2cnnn2Cc2cc(-c4ccccc4)cc(n2)C3)CC(=O)[O][Tm][O]1 [TD601] | too stable | 1.4E^3 ± 1.2E^1 hours | too stable | too stable
O=C1C[N@@]2CC[N@]3CC[N@@](CC[N@](CC2)Cc2cccc(n2)-c2cnnn2Cc2cc(-c4ccccc4)cc(n2)C3)CC(=O)[O][Yb][O]1 [TD602] | too stable | 4.7E^3 ± 2.1E^1 hours | too stable | too stable
O=C1C[N@@]2CC[N@]3CC[N@@](CC[N@](CC2)Cc2cccc(n2)-c2cnnn2Cc2cc(-c4ccccc4)cc(n2)C3)CC(=O)[O][Ho][O]1 [TD648] | 1.3E^4 ± 2.6E^2 hours | 6.8E^1 ± 2.7E^0 hours | too stable | too stable
O=C1C[N@@]2CC[N@]3CC[N@@](CC[N@](CC2)Cc2cccc(n2)-c2cnnn2Cc2cc(-c4ccccc4)cc(n2)C3)CC(=O)[O][Y][O]1 [TD649] | 5.9E^3 ± 1.4E^2 hours | 4.5E^1 ± 3.1E^−1 hours | too stable | too stable
O=C1C[N@@]2CC[N@]3CC[N@@](CC[N@](CC2)Cc2cccc(n2)-c2cnnn2Cc2cc(-c4ccccc4)cc(n2)C3)CC(=O)[O][La][O]1 [TD651] | too unstable | too unstable | 2.5E^0 ± 2.5E^−1 hours | too unstable
O=C1CN2CCN3CCN(CCN(CC2)Cc2cccc(n2)-c2cnnn2Cc2cccc(n2)C3)CP(=O)(O)[O][Lu][O]1 [TD734] | – | 1.6E^4 ± 1.5E^3 hours | – | –
NCc1nnn2c1-c1cccc(n1)C[N@]1CC[N@]3CC[N@@](CC[N@@](CC1)CC(=O)[O][Lu][O]C(=O)C3)Cc1cc(-c3ccccc3)cc(n1)C2 [TD735] | – | 2.3E^4 ± 8.3E^2 hours | – | –
O=C1C[N@@]2CC[N@]3CC[N@@](CC[N@](CC2)Cc2cccc(n2)-c2cnnn2Cc2cc(-c4ccc(C(=O)O)cc4)cc(n2)C3)CC(=O)[O][Lu][O]1 [TD748] | – | 1.5E^4 ± 2.9E^2 hours | – | –
O=C([O-])CN1CCN2CCN(CC(=O)[O-])CCN(CC1)Cc1cccc(n1)-c1cnnn1Cc1cc(-c3ccccc3)cc(n1)C2.[Ca+2] [TD863] | too unstable | too unstable | 7.3E^−1 hours | too unstable
O=C1C[N@@]2CC[N@]3CC[N@@](CC[N@](CC2)Cc2cccc(n2)-c2cnnn2Cc2cc(-c4ccccc4)cc(n2)C3)CC(=O)[O][Er][O]1 [TD865] | 5.9E^4 ± 1.1E^3 hours | 3.4E^2 ± 2.5E^0 hours | too stable | too stable
O=C1C[N@@]2CC[N@]3CC[N@@](CC[N@](CC2)Cc2cccc(n2)-c2cnnn2Cc2cc(-c4ccccc4)cc(n2)C3)CC(=O)[O][Dy][O]1 [TD866] | 3.6E^3 ± 5.0E^1 hours | 1.2E^1 ± 1.3E^−1 hours | too stable | 9.5E^4 ± 3.0E^3 hours
O=C1C[N@@]2CC[N@]3CC[N@@](CC[N@](CC2)Cc2cccc(n2)-c2cnnn2Cc2cc(-c4ccccc4)cc(n2)C3)CC(=O)[O][Sm][O]1 [TD867] | 1.5E^0 hours | too unstable | 1.3E^4 ± 4.4E^2 hours | 1.1E^2 ± 7.5E^−1 hours
O=C1C[N@@]2CC[N@]3CC[N@@](CC[N@](CC2)Cc2cccc(n2)-c2cnnn2Cc2cc(-c4ccccc4)cc(n2)C3)CC(=O)[O][Nd][O]1 [TD868] | too unstable | too unstable | 1.8E^2 ± 1.2E^1 hours | 1.2E^0 hours
O=C1C[N@@]2CC[N@]3CC[N@@](CC[N@](CC2)Cc2cccc(n2)-c2cnnn2Cc2cc(-c4ccccc4)cc(n2)C3)CC(=O)[O][Ce][O]1 [TD870] | too unstable | too unstable | 1.7E^1 ± 2.9E^−1 hours | too unstable
O=C1C[N@@]2CC[N@]3CC[N@@](CC[N@](CC2)Cc2cccc(n2)-c2cn(nn2)Cc2cc(-c4ccccc4)cc(n2)C3)CC(=O)[O][Lu][O]1 [TD874] | too unstable | too unstable | 5.1E^1 ± 4.8E^0 hours | too unstable
O=C1C[N@@]2CC[N@]3CC[N@@](CC[N@](CC2)Cc2cccc(n2)-c2cn(nn2)Cc2cc(-c4ccccc4)cc(n2)C3)CC(=O)[O][Gd][O]1 [TD875] | too unstable | too unstable | 3.2E^1 ± 2.1E^0 hours | too unstable
O=C([O-])CN1CCN2CCN(CC(=O)[O-])CCN(CC1)Cc1cccc(n1)-c1cnnn1Cc1cc(-c3ccccc3)cc(n1)C2.[Pb+2] [TD876] | too unstable | too unstable | 2.4E^−1 hours | too unstable
O=C([O-])CN1CCN2CCN(CC(=O)[O-])CCN(CC1)Cc1cccc(n1)-c1cnnn1Cc1cc(-c3ccccc3)cc(n1)C2.[Zn+2] [TD890] | too unstable | too unstable | 1.9E^2 ± 8.5E^0 hours | 4.7E^−1 hours
O=P1(c2ccccc2)C[N@@]2CC[N@]3CC[N@@](CC[N@](CC2)Cc2cccc(n2)-c2cnnn2Cc2cccc(n2)C3)CP(=O)(c2ccccc2)[O][Gd][O]1 (some centres unmarked) [TD925] | 7.7E^1 ± 2.3E^0 hours | 2.6E^0 hours | too stable | 9.9E^2 ± 2.2E^1 hours
